The supplement of paper PMC10369915
Some of the results follow. Cut-off read from the data, not from the text of the source: active = 3.2 or more and inactive = the rest. Most of these values are background signal.

Biological target: SHP2 C-SH2 domain E139D
Assay: enrichment score (SH2-bound / input frequency) (ratio); bacterial display of known human phosphotyrosine sites (pTyr-Var adds point mutants) read by sequencing; higher = stronger binding; tyrosines were phosphorylated by kinases first
Conditions: peptide library: pTyr-Var
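Note: displayed peptides selected on beads carrying the immobilized SH2 domain, with library peptides lacking any tyrosine serving as negative controls.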

Enrichment score, inactive:
EMTRNYIIFIE [BCO2_Y294_G289E] 1.08
DRIVNYSRASI [ATP7A_Y1459] 1.14
GHPFAYDWISI [BEST1_Y227_L224P_YF] 1.38
KVPELYEIHTE [BCR_Y554_K558T] 0.766
GHMYAYDWISI [BEST1_Y227_L224M] 2.8
FECKWYIPLTD [BCR_Y756_D752E_YF] 1.13
LYEDHYLLGTS [ASS1_Y87_R86H] 0.947
GHMFAYDWISI [BEST1_Y227_L224M_YF] 2.13
VSTAVYKRFAS [BEST1_Y148_P152A] 0.502
KSPDSYQKILF [ATM_Y1415_L1420F] 0.889
WASQRYGRELR [BAD_Y110_A107S] 0.462
AGRTGYDNREI [BCL2_Y9] 0.639
APVEDYGGGGG [B4GALT6_Y382_I379V] 0.675
QSSALYEDCFL [ASS1_Y83_R86C_YF] 1.05
TLCLCYKEIEE [ATP8B1_Y658] 1.52
QMVGMYASFYM [AVPR2_Y124_S127F] 0.978
WRPFGYPRRRR [BCS1L_Y181] 0.24
EEQFFYEKAIL [BCCIP_Y257_E254Q] 1.3

Biological target: SHP2 C-SH2 domain wild-type
Assay: as above
Conditions: peptide library: pTyr-Var

Enrichment score, inactive:
EMTRNYIIFIE [BCO2_Y294_G289E] 1.06
DRIVNYSRASI [ATP7A_Y1459] 0.962
GHPFAYDWISI [BEST1_Y227_L224P_YF] 1.04
KVPELYEIHTE [BCR_Y554_K558T] 0.75
GHMYAYDWISI [BEST1_Y227_L224M] 2.55
FECKWYIPLTD [BCR_Y756_D752E_YF] 1.17
LYEDHYLLGTS [ASS1_Y87_R86H] 0.929
GHMFAYDWISI [BEST1_Y227_L224M_YF] 2.18
VSTAVYKRFAS [BEST1_Y148_P152A] 0.439
KSPDSYQKILF [ATM_Y1415_L1420F] 0.963
WASQRYGRELR [BAD_Y110_A107S] 0.408
AGRTGYDNREI [BCL2_Y9] 0.71
APVEDYGGGGG [B4GALT6_Y382_I379V] 0.577
QSSALYEDCFL [ASS1_Y83_R86C_YF] 1.12
TLCLCYKEIEE [ATP8B1_Y658] 1.77
QMVGMYASFYM [AVPR2_Y124_S127F] 1.62
WRPFGYPRRRR [BCS1L_Y181] 0.345
EEQFFYEKAIL [BCCIP_Y257_E254Q] 1.36

Biological target: SHP2 N-SH2 domain L43F
Assay: as above
Conditions: peptide library: pTyr-Var

Enrichment score, inactive:
EMTRNYIIFIE [BCO2_Y294_G289E] 1.11
DRIVNYSRASI [ATP7A_Y1459] 0.833
GHPFAYDWISI [BEST1_Y227_L224P_YF] 1.15
KVPELYEIHTE [BCR_Y554_K558T] 0.788
GHMYAYDWISI [BEST1_Y227_L224M] 2.52
FECKWYIPLTD [BCR_Y756_D752E_YF] 1.28
LYEDHYLLGTS [ASS1_Y87_R86H] 1.29
GHMFAYDWISI [BEST1_Y227_L224M_YF] 1.89
VSTAVYKRFAS [BEST1_Y148_P152A] 0.283
KSPDSYQKILF [ATM_Y1415_L1420F] 0.911
WASQRYGRELR [BAD_Y110_A107S] 0.28
AGRTGYDNREI [BCL2_Y9] 0.68
APVEDYGGGGG [B4GALT6_Y382_I379V] 0.632
QSSALYEDCFL [ASS1_Y83_R86C_YF] 0.818
TLCLCYKEIEE [ATP8B1_Y658] 1.75
QMVGMYASFYM [AVPR2_Y124_S127F] 1.07
WRPFGYPRRRR [BCS1L_Y181] 0.366
EEQFFYEKAIL [BCCIP_Y257_E254Q] 1.19

Biological target: SHP2 N-SH2 domain T42A
Assay: as above
Conditions: peptide library: pTyr-Var

Enrichment score, inactive:
EMTRNYIIFIE [BCO2_Y294_G289E] 1.15
DRIVNYSRASI [ATP7A_Y1459] 0.962
GHPFAYDWISI [BEST1_Y227_L224P_YF] 1.42
KVPELYEIHTE [BCR_Y554_K558T] 0.729
GHMYAYDWISI [BEST1_Y227_L224M] 2.76
FECKWYIPLTD [BCR_Y756_D752E_YF] 1.18
LYEDHYLLGTS [ASS1_Y87_R86H] 1.23
GHMFAYDWISI [BEST1_Y227_L224M_YF] 1.82
VSTAVYKRFAS [BEST1_Y148_P152A] 0.305
KSPDSYQKILF [ATM_Y1415_L1420F] 1.43
WASQRYGRELR [BAD_Y110_A107S] 0.295
AGRTGYDNREI [BCL2_Y9] 0.544
APVEDYGGGGG [B4GALT6_Y382_I379V] 0.341
QSSALYEDCFL [ASS1_Y83_R86C_YF] 0.757
TLCLCYKEIEE [ATP8B1_Y658] 1.44
QMVGMYASFYM [AVPR2_Y124_S127F] 1.2
WRPFGYPRRRR [BCS1L_Y181] 0.252
EEQFFYEKAIL [BCCIP_Y257_E254Q] 0.941

Biological target: SHP2 N-SH2 domain T52S
Assay: as above
Conditions: peptide library: pTyr-Var

Enrichment score, inactive:
EMTRNYIIFIE [BCO2_Y294_G289E] 1.05
DRIVNYSRASI [ATP7A_Y1459] 0.854
GHPFAYDWISI [BEST1_Y227_L224P_YF] 1.17
KVPELYEIHTE [BCR_Y554_K558T] 0.685
GHMYAYDWISI [BEST1_Y227_L224M] 2.9
FECKWYIPLTD [BCR_Y756_D752E_YF] 0.953
LYEDHYLLGTS [ASS1_Y87_R86H] 1.36
GHMFAYDWISI [BEST1_Y227_L224M_YF] 2.35
VSTAVYKRFAS [BEST1_Y148_P152A] 0.387
KSPDSYQKILF [ATM_Y1415_L1420F] 0.884
WASQRYGRELR [BAD_Y110_A107S] 0.326
AGRTGYDNREI [BCL2_Y9] 0.56
APVEDYGGGGG [B4GALT6_Y382_I379V] 0.559
QSSALYEDCFL [ASS1_Y83_R86C_YF] 0.995
TLCLCYKEIEE [ATP8B1_Y658] 1.82
QMVGMYASFYM [AVPR2_Y124_S127F] 0.961
WRPFGYPRRRR [BCS1L_Y181] 0.3
EEQFFYEKAIL [BCCIP_Y257_E254Q] 1.3

Biological target: SHP2 N-SH2 domain wild-type
Assay: as above
Conditions: peptide library: pTyr-Var

Enrichment score, inactive:
EMTRNYIIFIE [BCO2_Y294_G289E] 1.17
DRIVNYSRASI [ATP7A_Y1459] 0.937
GHPFAYDWISI [BEST1_Y227_L224P_YF] 1.08
KVPELYEIHTE [BCR_Y554_K558T] 1.04
GHMYAYDWISI [BEST1_Y227_L224M] 2.56
FECKWYIPLTD [BCR_Y756_D752E_YF] 1.96
LYEDHYLLGTS [ASS1_Y87_R86H] 1.43
GHMFAYDWISI [BEST1_Y227_L224M_YF] 2.28
VSTAVYKRFAS [BEST1_Y148_P152A] 0.362
KSPDSYQKILF [ATM_Y1415_L1420F] 0.939
WASQRYGRELR [BAD_Y110_A107S] 0.327
AGRTGYDNREI [BCL2_Y9] 0.784
APVEDYGGGGG [B4GALT6_Y382_I379V] 0.593
QSSALYEDCFL [ASS1_Y83_R86C_YF] 1.05
TLCLCYKEIEE [ATP8B1_Y658] 1.83
QMVGMYASFYM [AVPR2_Y124_S127F] 1.4
WRPFGYPRRRR [BCS1L_Y181] 0.282
EEQFFYEKAIL [BCCIP_Y257_E254Q] 1.21
